About 2,200 (0.71%) of roughly 310,000 compounds showed an effect of 50% or more. Effects have a minus sign here. This is one part of the list.

This test deals with human ether-à-go-go-related gene (hERG) potassium channel (human, UniProt Q12809). The test is described as follows: primary screen, population patch clamp on CHO cells stably expressing hERG.
human ether-à-go-go-related gene (hERG) potassium channel, sequence (Q12809 whole entry, looked up): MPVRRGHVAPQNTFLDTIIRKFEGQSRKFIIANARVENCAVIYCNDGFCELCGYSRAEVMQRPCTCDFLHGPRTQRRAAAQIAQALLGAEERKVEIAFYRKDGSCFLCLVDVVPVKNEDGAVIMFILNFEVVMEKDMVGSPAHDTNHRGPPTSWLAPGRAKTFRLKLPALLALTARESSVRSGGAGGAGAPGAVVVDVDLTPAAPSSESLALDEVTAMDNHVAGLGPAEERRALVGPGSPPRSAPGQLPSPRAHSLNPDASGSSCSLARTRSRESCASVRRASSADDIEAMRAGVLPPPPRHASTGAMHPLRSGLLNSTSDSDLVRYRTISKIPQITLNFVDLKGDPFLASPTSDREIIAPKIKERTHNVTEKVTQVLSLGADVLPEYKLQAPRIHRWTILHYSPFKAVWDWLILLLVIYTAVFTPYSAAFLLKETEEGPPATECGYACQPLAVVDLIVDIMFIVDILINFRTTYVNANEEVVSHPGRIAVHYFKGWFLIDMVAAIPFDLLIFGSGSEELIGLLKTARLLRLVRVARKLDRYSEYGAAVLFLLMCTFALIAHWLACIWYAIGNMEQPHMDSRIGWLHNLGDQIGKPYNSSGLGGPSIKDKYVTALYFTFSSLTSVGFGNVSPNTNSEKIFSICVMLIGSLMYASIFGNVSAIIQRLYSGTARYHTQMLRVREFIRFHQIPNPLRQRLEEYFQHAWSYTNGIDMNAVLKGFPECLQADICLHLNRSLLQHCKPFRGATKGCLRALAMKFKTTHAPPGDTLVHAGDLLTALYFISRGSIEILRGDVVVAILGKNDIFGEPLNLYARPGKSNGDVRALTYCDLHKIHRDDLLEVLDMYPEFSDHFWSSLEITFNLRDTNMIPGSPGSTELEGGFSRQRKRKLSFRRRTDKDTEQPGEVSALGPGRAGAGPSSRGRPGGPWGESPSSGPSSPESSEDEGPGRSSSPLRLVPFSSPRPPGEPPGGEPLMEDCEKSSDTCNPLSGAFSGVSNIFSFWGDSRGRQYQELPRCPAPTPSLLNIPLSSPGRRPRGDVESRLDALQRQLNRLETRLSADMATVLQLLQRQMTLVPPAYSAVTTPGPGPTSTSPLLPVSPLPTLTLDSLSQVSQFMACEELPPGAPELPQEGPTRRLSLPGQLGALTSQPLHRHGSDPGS
For the molecule `Cc1cc(C)nc(NC(=S)NC(=O)c2ccccc2F)n1`, the “hERG current change (%, negative = inhibition) at 1uM” value is reported as 1.57%.
Regarding `S=C1NCCc2ccc(Cl)cc2C1c1ccccc1` (centres unmarked), the “hERG current change (%, negative = inhibition) at 1uM” value is listed as -6.86%.
With `NC(=O)COc1ccc(Cc2ncc(C(F)(F)F)cc2Cl)cc1` the figure was 8.92%.
Under `N#CCc1nn(Cc2ccc(F)cc2)c(=O)c2ccccc12` stands 4.32%; under `CCc1cccc2c(C(=O)COC(=O)c3ccc([N+](=O)[O-])s3)c[nH]c12`, 7.73%.
Consider `C[C@H]1c2cccc(O)c2C(O)=C2C(=O)C3(O)C(O)=C(C(N)=O)C(=O)[C@@H](N(C)C)[C@@H]3[C@@H](O)[C@@H]21.Cl` (some centres unmarked), for which the “hERG current change (%, negative = inhibition) at 1uM” value is listed as 17.8%.
Under `COc1cc(NC(=O)NCCN2CCN(c3ccc(Cl)cc3)CC2)ccc1C` stands 7.99%; under `Cn1nnnc1-c1cc(Br)ccc1NC(=O)c1ccccc1`, 9.15%.
With `COc1ccc(-n2nc3c(c2NC(=O)c2c(-c4ccccc4Cl)noc2C)CS(=O)(=O)C3)cc1` the figure was -11.7%; with `O=S(=O)(NCCC1=CCCCC1)c1cccc(S(=O)(=O)N2CCOCC2)c1`, 11.3%.
With `N#CCCn1cc(C(=O)Nc2cccc(C(=O)O)c2)c(-c2ccc(Cl)cc2)n1` the figure was 13.5%; with `Cc1ccc(C)c2nc3sc(C(=O)O)cc3cc12`, 15.7%; with `CC(C)=CCN1CCN(Cc2cc(F)ccc2-n2nc(C)cc2C)CC1CCO` (centres unmarked), 0.35%.
As to `CSCC[C@@H](C(=O)NCCCCCCCCCCC(=O)N1CCNCC1)n1cc(CCO)nn1`, the “hERG current change (%, negative = inhibition) at 1uM” value is recorded as 13.9%.
Under `Cc1ccc(NC(=O)C2CC(O)CN2C(=O)Oc2ccccc2)c(C)c1` (centres unmarked) stands 11.5%; under `Cc1ccc(-c2nnc(SCC(=O)N3CCN(c4ccccc4)CC3)o2)cc1`, 11.1%; under `COc1cccc(/C=N/Nc2ncnc(Cl)c2N)c1O`, 5.19%.
Under `CCCCC(=O)NCCc1cc2ccc(OC)cc2[nH]c1=O` stands 9.42%; under `Cl.O=C(c1ccc(F)cc1)C(CN1CCOCC1)c1ccccc1` (centres unmarked), 1.11%; under `CCOc1ncccc1C(=O)N1CCCSC1=Nc1ccccc1OC`, 9.7%.
For `COc1ccc(C(CNC(=O)c2cc3c(s2)CCC(C)C3)N2CCOCC2)cc1` (centres unmarked), the “hERG current change (%, negative = inhibition) at 1uM” value is given as -3.82%.
On to `CCOc1ccc(CN(C)C(=O)c2cc(S(=O)(=O)N3CCCC3)ccc2C)cc1`, for which the “hERG current change (%, negative = inhibition) at 1uM” value is -11.1%.
For the molecule `O=C(Nc1ccccc1)c1sc2cc(C(F)(F)F)cnc2c1-c1cccs1`, the “hERG current change (%, negative = inhibition) at 1uM” value is reported as 3.99%.
Under `Cc1ccc(-c2cc(-c3cccc(F)c3)n[nH]2)c(O)c1` stands 12.2%; under `CN(CC(=O)Nc1cccc(F)c1)C(=O)CC1CC2CCC1C2` (centres unmarked), 4.5%.
As for `Cn1cc(/C=C(\C(=O)O)C(C(=O)O)=C2CCCCC2)c2ccccc21`, the “hERG current change (%, negative = inhibition) at 1uM” value is listed as 8.36%.
Consider `C=C(C)CNC(=S)N/N=C/c1ccc([N+](=O)[O-])cc1`, for which the “hERG current change (%, negative = inhibition) at 1uM” value is on record as 8.58%.
With `O=C(/C=C/Nc1ccc(S(=O)(=O)Nc2cnc3ccccc3n2)cc1)c1ccccc1` the figure was 4.15%.
With `CCOC(=O)CSC1=C(C#N)C(=O)NC(c2ccc(OC)c(OC)c2)S1` (centres unmarked) the figure was 13.9%; with `COC(=O)c1n[nH]n(-c2ccc(F)c(Cl)c2)c1=O`, 11.5%.
Under `CCCCn1c2nc3ccccc3nc2c2c(=O)n(-c3ccccc3)cnc21` stands 2.17%; under `O=C(NCCN1CCN(Cc2ccc([N+](=O)[O-])cc2)CC1)C(=O)Nc1ccccc1`, -53.8%.
Regarding `COc1ccc(OCc2nc(N)nc(Nc3cccc(C)c3C)n2)cc1`, the “hERG current change (%, negative = inhibition) at 1uM” value was found to be 13.9%.
With `Cc1onc(-c2ccccc2)c1C(=O)Nc1cccc(C#N)c1` the figure was 4.13%; with `COc1ccc(CCNC(=O)COc2coc(CN3c4ccccc4CC3C)cc2=O)cc1OC` (centres unmarked), 14.4%; with `Cc1ccc(S(=O)(=O)N2C(=O)c3cccc4cccc2c34)cc1`, 13.5%.
On to `CC(Oc1cccc2cccnc12)C(=O)N/N=C/c1ccccc1` (centres unmarked), for which the “hERG current change (%, negative = inhibition) at 1uM” value turned out to be 6.71%.
With `O=C(Nc1ccc(N2CCCCC2)cc1)C(Cl)c1ccccc1` (centres unmarked), the “hERG current change (%, negative = inhibition) at 1uM” value was 11.4%.
`CCn1cc(Br)c(C(=O)NN)n1`: the “hERG current change (%, negative = inhibition) at 1uM” value is 14.2%.
Under `Cc1ccc(N2CC(C(=O)OCC(=O)c3ccc(F)cc3)CC2=O)cc1` (centres unmarked) stands 13.8%.
Under `COc1ccc(NC(=O)CCCC(=O)c2ccccc2)c(OC)c1` stands 10.7%; under `COc1ccc(/C=N/n2cc(-c3ccc(OC)cc3)nc2N)cc1`, -3.68%; under `CN(CCCC1CCCC1)C(=O)CCc1nnc(-c2ccccc2)o1`, 12.6%.
As for `CN(C(=O)c1ccncc1)C1CCS(=O)(=O)C1` (centres unmarked), the “hERG current change (%, negative = inhibition) at 1uM” value is given as 1.86%.
With `C[C@]12CC[C@H](OS(=O)(=O)[O-])CC1=CC[C@@H]1[C@@H]2CC[C@]2(C)C(=O)CC[C@@H]12.O.[Na+]` the figure was 17%; with `Cn1c(SCC(=O)c2cc(Cl)c(Cl)s2)nnc1-c1ccco1`, -0.787%.
Under `CC(=O)N1CC=CC1(CC(C)C)C(=O)NCCc1c[nH]c2ccccc12` (centres unmarked) stands 7.65%; under `COC(=O)c1nnn(-c2nonc2N)c1CSc1nnc(N)s1`, 15.3%.
Turning to `Cc1ccc(NS(=O)(=O)c2ccc(-c3cnc(C4CC4)o3)cc2)c(C)c1`, the “hERG current change (%, negative = inhibition) at 1uM” value was determined as 4.7%.
With `Cc1nc([N+](=O)[O-])c(SCC(N)=O)n1Cc1ccccc1` the figure was 13.2%.
Under `COc1ccc(-c2c(C)oc3cc(O)cc(O)c3c2=O)cc1OC` stands 1.63%.
With `O=C(c1ccc(NC(=S)NCc2ccc(Cl)cc2)cc1)N1CCCCC1` the figure was 3.84%.
In the case of `Cn1nc(Oc2ncc(C(F)(F)F)cc2Cl)cc1C(F)(F)F`, the “hERG current change (%, negative = inhibition) at 1uM” value is on record as 4.88%.
With `COc1ccc(CCC(=O)NNC(=O)Nc2cc(Cl)ccc2C)cc1` the figure was 4.07%; with `O=C1N(c2ccccc2C(F)(F)F)O[C@]1(c1ccccc1)C1CCCCC1`, -6.55%; with `CCCn1nc(CC(=O)O)c2ccccc2c1=O`, 3.22%.
Under `Cc1ccccc1CSc1nnc(-c2cccs2)n1Cc1ccco1` stands 6.88%; under `COc1ccccc1NS(=O)(=O)c1cccc(C(=O)N/N=C2\CC(=O)CC(C)(C)C2)c1`, -3.42%; under `CC(C)CNC(=S)NNC(=O)c1csc2c1CCCC2`, 2.91%.
With `Cc1ccc(S(=O)(=O)N2CC3CC(C2)c2cccc(=O)n2C3)cc1` (centres unmarked) the figure was -6.88%; with `CN(C)S(=O)(=O)c1cccc(COC(=O)c2ccc(Cl)cc2O)c1`, 10.5%.
As to `C=C(C)CC1Nc2ccccc2NC1CC(=C)C` (centres unmarked), the “hERG current change (%, negative = inhibition) at 1uM” value stood at 11.7%.
Under `Cc1nc2ccc(NC(=O)c3ccc(Cl)nc3)cc2s1` stands -0.369%; under `CCCCc1nc2ccc(S(=O)(=O)O)cc2[nH]1`, 1.3%; under `C/C(=C\c1ccccc1F)C1Nc2cccc3cccc(c23)N1`, 19.8%.
With `Cc1cc([N+](=O)[O-])ccc1-c1ccc(/C=N/NC(=O)Cc2ccccc2)o1` the figure was 4.48%; with `COc1ccc(/C=C2\SC(=S)N(C(C(=O)O)c3ccccc3)C2=O)c(OC)c1` (centres unmarked), 11.7%.
With `CN1CCN(C(CNC(=O)C(=O)NC2CCCCC2)c2ccc(F)cc2)CC1` (centres unmarked) the figure was 3.69%; with `Cc1ccc2ccccc2[n+]1CCCS(=O)(=O)[O-]`, 14.9%.
`O=C(NC1CCCCC1)N(Cc1cc2cc3c(cc2[nH]c1=O)OCCO3)CC1CCCO1` (centres unmarked): the “hERG current change (%, negative = inhibition) at 1uM” value turned out to be 1.55%.
Consider `Cc1cccc2cc(CNC3CCCC3)c(Cl)nc12`, for which the “hERG current change (%, negative = inhibition) at 1uM” value came to 10.3%.
With `CN1C2CCC1CC(=NO)C2` the figure was 8.07%; with `COc1cc(/C=N/NC(=O)c2ccoc2C)ccc1OCCN1CCCCC1`, 3.72%; with `Cc1nnc(SCC2=C(C(=O)O)N3C(=O)C(NC(=O)c4cccc(F)c4F)C3SC2)s1` (centres unmarked), 11.7%.
For the molecule `CSc1ncccc1C(=O)OCC(=O)NC1CCCCC1`, the “hERG current change (%, negative = inhibition) at 1uM” value was 2.84%.
With `O=S(=O)(Nc1ccc2c3c(cccc13)CC2)c1ccc(F)cc1` the figure was -1.87%.
Under `Cc1c(C(=O)NCc2ccccn2)oc2ccc(S(=O)(=O)N3CCOCC3)cc12` stands 7.58%; under `Cc1ccc(-n2[nH]c(C)c(CCC#N)c2=O)cc1`, 2.81%.
With `N/C(=N\OC(=O)c1ccccc1)c1cccnc1` the figure was 20.7%.
For `CC(=O)c1c(C)[nH]c(C(=O)N2CCc3ccccc32)c1C`, the “hERG current change (%, negative = inhibition) at 1uM” value is reported as 10.9%.
Take `COc1ccccc1OCc1nnc(SCC(=O)Nc2nnc(C3CC3)s2)n1C`: the “hERG current change (%, negative = inhibition) at 1uM” value is recorded as 15.6%.
With `Cl.O=C(NCCN1CCOCC1)c1cc2ccccc2o1`, the “hERG current change (%, negative = inhibition) at 1uM” value stood at 7.43%.
With `O=[N+]([O-])c1ccc(S(=O)(=O)Nc2ccc(-c3csc(-c4ccccc4)n3)cc2)cc1` the figure was 14.4%; with `CC1CCCC(NC(=O)c2cccc(S(=O)(=O)NCc3ccccc3)c2)C1C` (centres unmarked), 2.99%.
With `Cc1ccc(-n2nnnc2CNC(=O)c2ccc3c(c2)OCO3)cc1C` the figure was 7.46%; with `O=C(Nc1ccc2c(c1)OCO2)C1CC(c2cccc(Br)c2)=NO1` (centres unmarked), 3.89%.
Under `Cn1c(CSCc2ccccc2)nnc1SCC(=O)Nc1ccc(C(=O)O)cc1` stands 5.37%.
For the molecule `CCOc1ccc(NC(=O)COc2ccccc2C(=O)NCc2ccccc2)cc1`, the “hERG current change (%, negative = inhibition) at 1uM” value is 4.09%.
Under `CC(C)CN1C(=O)/C(=C(/C#N)C(=O)NC2CCCCC2)c2ccccc21` stands 5.21%.

Values taken from PMC4336329 (PLoS ONE, 2015).
